Laboratory results reported in the supplement of paper PMC8728848.
The other results are listed elsewhere or left out.

How the values were obtained:
Assay in all cases: glycan array binding signal (z-score within array); higher = stronger binding
Settings in all cases: glycan notation: IUPAC condensed, linker removed
[1] = target: 3-Anhydro-Gal(a1-3)Gal(b1-4)3-Anhydro-Gal(a1-3)Gal4S
Procedure, shortened: (§1)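 Glycan array data came from 3228 arrays in the Consortium for Functional Glycomics database, and only arrays with an available protein sequence were kept. Glycan names were put into IUPAC-condensed notation, and columns mapping to the same glycan were averaged. The binding signal is a within-array Z-score, averaged across arrays of one protein sequence run at different concentrations or buffers and across linkers. A negative Z-score can be read as non-binding.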

[2] = target: 3-Anhydro-Gal(a1-3)Gal4S(b1-4)3-Anhydro-Gal(a1-3)Gal4S
Procedure, shortened: as §1

[3] = target: 3-Anhydro-Gal(a1-3)Gal4S(b1-4)3-Anhydro-Gal(a1-3)Gal4S(b1-4)3-Anhydro-Gal(a1-3)Gal4S
Procedure, shortened: as §1

[4] = target: 3-Anhydro-Gal(a1-3)Gal4S(b1-4)3-Anhydro-Gal(a1-3)Gal4S(b1-4)3-Anhydro-Gal(a1-3)Gal4S(b1-4)3-Anhydro-Gal(a1-3)Gal4S
Procedure, shortened: as §1

[5] = target: 3-Anhydro-Gal(a1-3)Gal4S(b1-4)3-Anhydro-Gal2S(a1-3)Gal4S(b1-4)3-Anhydro-Gal(a1-3)Gal4S
Procedure, shortened: as §1

[6] = target: 3dGal(b1-3)[Fuc(a1-4)]Glc
Procedure, shortened: as §1

[7] = target: 3dGal(b1-4)Glc
Procedure, shortened: as §1

[8] = target: Ara(a1-5)Ara(a1-5)Ara(a1-5)Ara(a1-5)Ara(a1-5)Ara
Procedure, shortened: as §1

[9] = target: Ara(a1-5)Ara(a1-5)Ara(a1-5)Ara(a1-5)Ara(a1-5)Ara(a1-5)Ara
Procedure, shortened: as §1

[10] = target: Fuc(a1-2)Gal
Procedure, shortened: as §1

[11] = target: Fuc(a1-2)Gal(b1-3)GlcNAc(b1-3)Gal(b1-4)Glc
Procedure, shortened: as §1

[12] = target: Fuc(a1-2)Gal(b1-3)GlcNAc(b1-3)[Fuc(a1-3)[Gal(b1-4)]GlcNAc(b1-6)]Gal(b1-4)Glc
Procedure, shortened: as §1

[13] = target: Fuc(a1-2)Gal(b1-3)[Fuc(a1-4)]GlcNAc(b1-3)Gal(b1-4)Glc
Procedure, shortened: as §1

[14] = target: Fuc(a1-2)Gal(b1-3)[Fuc(a1-4)]GlcNAc(b1-3)Gal(b1-4)[Fuc(a1-3)]GlcNAc(b1-3)Gal(b1-4)Glc
Procedure, shortened: as §1

[15] = target: Fuc(a1-2)Gal(b1-3)[Fuc(a1-4)]GlcNAc(b1-3)[Fuc(a1-2)]Gal(b1-4)Glc
Procedure, shortened: as §1

[16] = target: Fuc(a1-2)Gal(b1-3)[Fuc(a1-4)]GlcNAc(b1-3)[Fuc(a1-3)[Gal(b1-4)]GlcNAc(b1-6)]Gal(b1-4)Glc
Procedure, shortened: as §1

[17] = target: Fuc(a1-2)Gal(b1-3)[Fuc(a1-4)]GlcNAc(b1-3)[Gal(b1-4)GlcNAc(b1-6)]Gal(b1-4)Glc
Procedure, shortened: as §1

[18] = target: Fuc(a1-2)Gal(b1-4)[Fuc(a1-3)]GlcNAc(b1-3)Gal(b1-4)Glc
Procedure, shortened: as §1

[19] = target: Fuc(a1-2)Gal(b1-4)[Fuc(a1-3)]GlcNAc(b1-3)[Fuc(a1-2)]Gal(b1-4)Glc
Procedure, shortened: as §1

[20] = target: Fuc(a1-2)[Gal(a1-3)]Gal
Procedure, shortened: as §1

[21] = target: Fuc(a1-2)[Gal(a1-3)]Gal(b1-4)GlcNAc(b1-3)Gal(b1-4)Glc
Procedure, shortened: as §1

[22] = target: Fuc(a1-2)[GalNAc(a1-3)]Gal
Procedure, shortened: as §1

[23] = target: Fuc(a1-2)[GalNAc(a1-3)]Gal(b1-3)GlcNAc(b1-3)Gal(b1-4)Glc
Procedure, shortened: as §1

[24] = target: Fuc(a1-2)[GalNAc(a1-3)]Gal(b1-3)[Fuc(a1-4)]GlcNAc(b1-3)Gal(b1-4)Glc
Procedure, shortened: as §1

[25] = target: Fuc(a1-2)[Neu5Ac(bond)]Gal(b1-3)GlcNAc(b1-3)Gal(b1-4)Glc
Procedure, shortened: as §1

[26] = target: Fuc(a1-3)GlcNAc6S
Procedure, shortened: as §1

[27] = target: Fuc(a1-3)[3dGal(b1-4)]Glc
Procedure, shortened: as §1

[28] = target: Fuc(a1-3)[Gal(b1-4)]GlcNAc
Procedure, shortened: as §1

[29] = target: Fuc(a1-3)[Gal(b1-4)]GlcNAc(b1-3)Gal(b1-4)Glc
Procedure, shortened: as §1

[30] = target: Fuc(a1-3)[Gal(b1-4)]GlcNAc(b1-3)Gal(b1-4)[Fuc(a1-3)]Glc
Procedure, shortened: as §1

[31] = target: Fuc(a1-3)[Gal(b1-4)]GlcNAc(b1-3)[Fuc(a1-2)]Gal(b1-4)Glc
Procedure, shortened: as §1

[32] = target: Fuc(a1-3)[Gal(b1-4)]GlcNAc(b1-3)[Fuc(a1-3)[Gal(b1-4)]GlcNAc(b1-6)]Gal(b1-4)Glc
Procedure, shortened: as §1

[33] = target: Fuc(a1-3)[Gal3S(b1-4)]Glc
Procedure, shortened: as §1

[34] = target: Fuc(a1-3)[Gal3S(b1-4)]GlcNAc
Procedure, shortened: as §1

[35] = target: Fuc(a1-3)[Gal3S(b1-4)]GlcNAc(b1-3)Gal(b1-4)Glc
Procedure, shortened: as §1

[36] = target: Fuc(a1-3)[Gal3S(b1-4)]GlcNAc6S(b1-3)Gal(b1-4)Glc
Procedure, shortened: as §1

[37] = target: Fuc(a1-3)[Gal6S(b1-4)]GlcNAc(b1-3)Gal(b1-4)Glc
Procedure, shortened: as §1

[38] = target: Fuc(a1-6)GlcNAc
Procedure, shortened: as §1

[39] = target: Gal(a1-3)Gal(b1-4)Gal(a1-3)Gal
Procedure, shortened: as §1

[40] = target: Gal(a1-4)Gal(b1-4)GlcNAc
Procedure, shortened: as §1

[41] = target: Gal(b1-3)GalNAc
Procedure, shortened: as §1

[42] = target: Gal(b1-3)GalNAc(b1-4)Gal(b1-4)Glc
Procedure, shortened: as §1

[43] = target: Gal(b1-3)GalNAc(b1-4)Gal3S(b1-4)Glc
Procedure, shortened: as §1

[44] = target: Gal(b1-3)GalNAc(b1-4)[Neu5Ac(a2-3)]Gal(b1-4)Glc
Procedure, shortened: as §1

[45] = target: Gal(b1-3)GalNAc(b1-4)[Neu5Gc(a2-3)]Gal(b1-4)Glc
Procedure, shortened: as §1

[46] = target: Gal(b1-3)GlcNAc
Procedure, shortened: as §1

[47] = target: Gal(b1-3)GlcNAc(b1-3)Gal(b1-4)Glc
Procedure, shortened: as §1

[48] = target: Gal(b1-3)GlcNAc(b1-3)Gal(b1-4)GlcNAc(b1-3)Gal(b1-4)Glc
Procedure, shortened: as §1

[49] = target: Gal(b1-3)GlcNAc(b1-3)Gal(b1-4)GlcNAc(b1-6)[Gal(b1-3)GlcNAc(b1-3)]Gal(b1-4)Glc
Procedure, shortened: as §1

[50] = target: Gal(b1-3)GlcNAc(b1-3)Gal(b1-4)[Fuc(a1-3)]GlcNAc(b1-3)Gal(b1-4)Glc
Procedure, shortened: as §1

[51] = target: Gal(b1-3)GlcNAc(b1-3)Gal(b1-4)[Fuc(a1-3)]GlcNAc(b1-6)[Gal(b1-3)GlcNAc(b1-3)]Gal(b1-4)Glc
Procedure, shortened: as §1

[52] = target: Gal(b1-3)GlcNAc(b1-3)[Fuc(a1-3)[Gal(b1-4)]GlcNAc(b1-6)]Gal(b1-4)Glc
Procedure, shortened: as §1

[53] = target: Gal(b1-3)GlcNAc(b1-3)[Fuc(a1-3)[Gal(b1-4)]GlcNAc(b1-6)]Gal(b1-4)]GlcNAc(b1-6)[Gal(b1-4)]GlcNAc(b1-3)]Gal(b1-4)Glc
Procedure, shortened: as §1

[54] = target: Gal(b1-3)GlcNAc(b1-3)[Gal(b1-4)GlcNAc(b1-6)]Gal(b1-4)Glc
Procedure, shortened: as §1

[55] = target: Gal(b1-3)GlcNAc(b1-3)[Gal(b1-4)GlcNAc(b1-6)]Gal(b1-4)GlcNAc(b1-6)[Gal(b1-3)GlcNAc(b1-3)]Gal(b1-4)Glc
Procedure, shortened: as §1

[56] = target: Gal(b1-3)[Fuc(a1-4)]GlcNAc
Procedure, shortened: as §1

[57] = target: Gal(b1-3)[Fuc(a1-4)]GlcNAc(b1-3)Gal(b1-4)Glc
Procedure, shortened: as §1

[58] = target: Gal(b1-3)[Fuc(a1-4)]GlcNAc(b1-3)Gal(b1-4)[Fuc(a1-3)]Glc
Procedure, shortened: as §1

[59] = target: Gal(b1-3)[Fuc(a1-4)]GlcNAc(b1-3)Gal(b1-4)[Fuc(a1-3)]GlcNAc(b1-3)Gal(b1-4)Glc
Procedure, shortened: as §1

[60] = target: Gal(b1-3)[Fuc(a1-4)]GlcNAc(b1-3)Gal(b1-4)[Fuc(a1-3)]GlcNAc(b1-6)[Gal(b1-3)[Fuc(a1-4)]GlcNAc(b1-3)]Gal(b1-4)Glc
Procedure, shortened: as §1

Measured: glycan array binding signal (z-score)

B1: CLECSF8 (Mus musculus), Q9Z2H6 (protein)
chain: HYFLRWTRGSVVKLSDYHTRVTCIREEPQPGATGGTWTCCPVSWRAFQSNCYFPLNDNQTWHESERNCSGMSSHLVTINTEAEQNFVTQLLDKRFSYFLGLADENVEGQWQWVDKTPFNPHTVFWEKGESNDFMEEDCVVLVHVHEKWVWNDFPCHFEVRRICKLPGITFNWKPSK
-0.223: [22]
0.317: [54]
-0.401: [36]
1.07: [27]
-0.144: [30]
-0.352: [59]
-0.424: [1] | [2] | [3] | [4] | [5] | [6] | [11] | [12] | [15] | [16] | [17] | [18] | [19] | [20] | [21] | [23] | [24] | [25] | [29] | [31] | [32] | [33] | [34] | [35] | [37] | [38] | [39] | [40] | [41] | [42] | [43] | [44] | [45] | [47] | [48] | [49] | [50] | [51] | [52] | [53] | [56] | [57] | [58] | [60]
1.03: [14]
1.8: [10]
-0.321: [46]
-0.413: [28]
0.313: [8] | [55]
0.072: [7]
0.899: [9]
-0.102: [26]
-0.397: [13]
